Measured values from the supplement of paper PMC3334620.
Whole data set: some 33,000 sequences, median “E-score (-0.5 to 0.5)” near -0.054, cut for the highest 2% near 0.39. The list shows a part of the results.

Biological target: Ylr278c (UniProt Q05854)
Experiment: PBM E-score (8-mer binding enrichment) (E-score (-0.5 to 0.5)); higher = stronger / more preferred TF binding; most listed sequences are background and not binding sites
Details: protein concentration: 200 nM; construct: GST-DNA-binding domain
Method in brief: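 The E-score, a modified Wilcoxon-Mann-Whitney statistic, was computed by the Universal PBM Analysis Suite for every ungapped eight-base word pooled with its reverse complement. Scans behind it were normalised with masliner after bound GST-tagged yeast transcription factors were detected with fluorescent anti-GST. The proteins, at about 100-200 nM, had been applied to universal all-10-mer Agilent arrays made double-stranded by primer extension.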

| Sequence | PBM E-score |
| --- | --- |
| ACGGACAA | 0.355 |
| AGCAAACT | -0.0252 |
| AAAATAGC | -0.0827 |
| ACTTTTTC | 0.0317 |
| CAGCCTCA | -0.248 |
| CACCGCAA | 0.226 |
| GCTCCTCC | 0.0475 |
| AGACAAAA | -0.0417 |
| ATGCTGGA | -0.0997 |
| GCACTCGC | 0.0715 |
| GCAGCGGA | 0.304 |
| AAGTGACA | -0.00461 |
| GGTGTTAC | -0.00064 |
| AACACGAC | -0.161 |
| AATCTCAA | 0.0797 |
| CCACCTCA | -0.0406 |
| ACTTAGCA | -0.0645 |
| GAGCTTCC | 0.203 |
| GGGTGTGA | -0.128 |
| CCTCCGCA | 0.359 |
| CATCCATA | -0.123 |
| CACAGGAA | 0.0218 |
| ACAATCGG | 0.352 |
| GCATTGAC | -0.161 |
| GCTAGCAC | -0.0829 |

| Sequence | PBM E-score |
| --- | --- |
| TACCCATA | -0.268 |
| AGATAGCC | 0.0998 |
| CGCAGACC | 0.00499 |
| ATCTTCTG | 0.0811 |
| CCCGACGC | 0.294 |
| AGTAACGG | 0.0625 |
| GGGATCAC | -0.0942 |
| CGGCCCTC | 0.139 |
| CCGATAGC | 0.301 |
| AGGAGTAT | -0.116 |
| AACATGGA | -0.0922 |
| GGGATAGA | -0.0417 |
| GATGTGCC | 0.00479 |
| GACCTGGC | -0.0814 |
| AAGAAGAC | -0.125 |
| CAGAATTC | 0.0633 |
| AACCCACA | -0.192 |
| CCCGATCA | 0.227 |
| CACAGTGG | -0.162 |
| GGACCGAC | 0.198 |
| GTCATAAC | -0.104 |
| CCACCGGG | 0.329 |
| CATTTAAA | 0.0824 |
| CCGGTTTA | 0.317 |
| AGGCCAGA | -0.0555 |

| Sequence | PBM E-score |
| --- | --- |
| AAAAGTGC | 0.0666 |
| GAATCATA | -0.09 |
| CATCACTA | -0.195 |
| AACCCGCG | 0.229 |
| CGGTGACA | 0.148 |
| AACATGTG | -0.071 |
| CATAGCAC | -0.0308 |
| CCCCGACG | 0.363 |
| CTAAACAG | -0.148 |
| CTAGACGC | -0.236 |
| CTAAAGAG | -0.213 |
| ATTACTTA | 0.148 |
| CTTATTTC | 0.0792 |
| CGTTACCA | -0.241 |
| CCGTACCA | 0.247 |
| GGCAGGAC | -0.00715 |
| GCCTCCCA | -0.0948 |
| GAACGACA | -0.173 |
| CACTGTAC | -0.378 |
| CATAATGC | 0.0347 |
| ACGTTGCT | -0.241 |
| GATTTACA | 0.0958 |
| AGTTTTTG | -0.0312 |
| GCACCGAC | 0.303 |
| CACTACGA | -0.133 |

| Sequence | PBM E-score |
| --- | --- |
| GAAGCTGA | 0.011 |
| GGATTAGA | 0.00896 |
| AGATAACG | 0.239 |
| GGTAATTA | 0.211 |
| GACATGAC | -0.15 |
| CCGAATTC | 0.323 |
| AAGCTCTA | -0.224 |
| ATCACGGG | 0.0633 |
| CGACGGCA | 0.113 |
| GGAAGTAA | 0.21 |
| CGCTGGAA | 0.12 |
| ACCATGTC | -0.0165 |
| CGGTTTTA | 0.229 |
| CATTCCCC | 0.268 |
| GCGTGACA | -0.135 |
| CTGCTATA | 0.015 |
| CCTAAGCA | -0.0992 |
| GAAATGCA | 0.0435 |
| GCGCTGCC | -0.103 |
| CAATCGAG | -0.153 |
| TCTGCTCA | -0.298 |
| CAAAAGGG | -0.25 |
| GAAAAGAC | 0.066 |
| CGCCTTAC | -0.152 |
| CTAAGACA | -0.199 |

| Sequence | PBM E-score |
| --- | --- |
| GACAAATC | 0.011 |
| GAAAAAAA | 0.108 |
| CCGGTTTC | 0.345 |
| AGGCCCTG | -0.276 |
| AGCAGTCC | -0.0654 |
| CGCGCTGA | 0.0743 |
| GACATTCA | 0.177 |
| ATAGATAC | -0.138 |
| GTACACGA | -0.0442 |
| CCGTATGA | 0.165 |
| TTACTGAA | -0.0744 |
| AGTGCGTG | -0.0867 |
| GACCGAAC | 0.122 |
| ATGAGACA | -0.0671 |
| GCATCGCC | 0.0511 |
| GGCAAAGA | 0.147 |
| ACACGTCG | 0.0356 |
| GAGTGGCC | 0.108 |
| AATGGTTC | -0.108 |
| AAGGTTAT | -0.0625 |
| AACCGAGT | -0.0766 |
| CAAAGCTG | -0.0969 |
| CCTGCGTA | -0.145 |
| AACTGTTA | -0.15 |
| CAATAAGC | 0.11 |

| Sequence | PBM E-score |
| --- | --- |
| AGTAGTAC | -0.0265 |
| ATATGAGC | -0.125 |
| GGCATACC | -0.0283 |
| TAACCCAA | -0.137 |
| CGTCGAGC | -0.0842 |
| TCATGGCA | -0.145 |
| CCCAATTC | 0.00722 |
| AGTAAGGA | -0.072 |
| GGCAGGGA | -0.197 |
| ACGCGACC | -0.107 |
| CAATCGCG | 0.0497 |
| GTGACTTA | -0.115 |
| ACGCCTGA | -0.127 |
| CATTTGGC | -0.0986 |
| AAGGTAAG | -0.136 |
| TATGCGCA | -0.0947 |
| ATGACTTC | -0.0415 |
| CGCAAGCC | 0.0749 |
| ACTTTCCT | -0.146 |
| GACGGCAA | 0.142 |
| TCGATTCA | -0.103 |
| CCTCATCA | -0.177 |
| GTTACAGA | -0.131 |
| ATCTCTCG | 0.0392 |
| CCCACGCC | -0.193 |

| Sequence | PBM E-score |
| --- | --- |
| ATACGAAT | -0.24 |
| GGGAATTA | 0.143 |
| GACGCCTC | -0.121 |
| CACTCTAA | -0.127 |
| ACCGTTAC | -0.124 |
| GCAGTTAC | 0.0318 |
| CATTATAG | -0.0427 |
| GTAAAGAA | -0.0759 |
| CGAATGAC | 0.167 |
| CGTAGCTC | 0.0772 |
| AAGAAGGC | -0.0911 |
| CATTTAAG | -0.159 |
| CACTACTA | -0.0402 |
| AAAGGCAA | -0.121 |
| ATTCGCAA | -0.0414 |
| CACCCATG | -0.103 |
| GGGGTCTA | 0.142 |
| GTATCCCA | -0.139 |
| GCATAGCA | -0.229 |
| AAGTTTAT | 0.139 |
| AGGTGCAC | 0.0215 |
| GACCTTGC | -0.212 |
